The record followed here is publication PMC3329507, “GalNAc/Gal-Binding Rhizoctonia solani Agglutinin Has Antiproliferative Activity in Drosophila melanogaster S2 Cells via MAPK and JAK/STAT Signaling” (PLoS ONE, 2012).

This test has as its target T1, Rhizoctonia solani agglutinin (RSA) (Rhizoctonia solani, UniProt L8WGI4).
T1 construct: gene AG1IA_08901
The settings on record: 0.7 µM RSA pre-incubated 1 h with 100 mM GalNAc (Figure 2 legend prints 100 µM), then S2 cells 24 h, 27 °C; competitive with cell-surface glycans; indirect read-out.

For the compound `CC(=O)N[C@H]1C(O)O[C@H](CO)[C@H](O)[C@@H]1O` (stereo partly shown) [N-acetylgalactosamine], the “% reduction of antiproliferative activity at 100 mM” value is on record as ~ 70%.
